Data taken from the RNAGym collection of RNA variant scans (doi:10.7554/elife.90254).
Read counts are not given, so values of variants with three or more changes are uncertain.

B1: OR4K15 (parent)
chain: GUUAACGGUCAUAGGCCAUGGAAACUAGGAGCACCAUUUCGCUGCCAGUGAAGAAAUGAACAAAGAAAAUCUGGGCCAGGCAGGCAUCAAAAGAAAUAGUCUUGCGCUCAACCAGAAAGUCUGUAAUCAUUUUAAGGGUA

Variants of: B1
Experiment: self-cleavage, relative activity (ratio to wild type); higher = more cleavage; in vitro, sequencing; the parent is a self-cleaving ribozyme

| Variant | self-cleavage |
| --- | --- |
| GUUAAUGGUCAUAGGCCAUGGAAACUAGGAGCACCAUUUCGCUGCCCGUGAAGAAAUGAACAAAGAAAAUCUGGGCCAGGCAGGCAUCAAAAGAAAUAGUCUUGCGCUCAACCAGAAAGUCCGUAAUCAUUUUAAGGGUA [C6U A47C U122C] | 1.23 |
| GUUAAUGGUCAUAGGCCAUGGAAACUAGGAGCACCAUUUCGCUGCCAGUGAGGAAAUGAACAAAGAAAGCCUGGGCCAGGCAGGCAUCAAAAGAAAUAGUCUUGCGCUCAACCAGAAAGUCCGUAAUCAUUUUAAGGGUA [C6U A52G A69G U70C U122C] | 0.25 |
| GUUAAUGGUCAUAGGCCAUGGAAACUAGGAGCACCAUUUCGCUGCCAGUGAAGAGAUGAACAAAGAAGAUCUGGGCCAGGCAGGCAUCAAAAGAAAUAGUCUUGCGCUCAACCAGAAAGUCUGUAAUCACUUUAAGGGUA [C6U A55G A68G U130C] | 1.21 |
| GUUAAUGGUCAUAGGCCAUGGAAACUAGGAGCACCAUUUCGCUGCCAGUGAAGAGAUGAACAAAGAAAACCUGGGCCAGGCAGGCAUCAAAAGAAAUAGUCUUGCGCUCAACCAGAAAGUCUGUAAUCAUUUUAAGGGUA [C6U A55G U70C] | 0.78 |
| GUUAAUGGUCAUAGGCCAUGGAAACUAGGAGCACCAUUUCGCUGCCAGUGAAGAAAUGGACAAAGAAAAUCUGGGCCAGGCAGGCAUCAAAAGAGAUAGUCUUGCGCUCAACCAGAAAGUCUGUAAUCAUUUUAAGGGUA [C6U A59G A95G] | 0.94 |
| GUUAAUGGUCAUAGGCCAUGGAAACUAGGAGCACCAUUUCGCUGCCAGUGAAGAAAUGUACAAAGAAAAUCUGGGCCAGGCAGGCAUCAAAAGAAGUAGUCUUGCGCUCAACCAGAGAGUCUGUAAUCAUUUUAAGGGUA [C6U A59U A96G A117G] | 0.42 |
| GUUAAUGGUCAUAGGCCAUGGAAACUAGGAGCACCAUUUCGCUGCCAGUGAAGAAAUGAGCAAAGAAAACCUGGGCCAGGCAGGCAUCAAUAGAAAUAGUCUUGCGCUCAACCAGAAAGUCUGUAAUCAUUUUAAGGGUA [C6U A60G U70C A91U] | 2.11 |
| GUUAAUGGUCAUAGGCCAUGGAAACUAGGAGCACCAUUUCGCUGCCAGUGAAGAAAUGAACAGAGAAAAUCUGGGCCAGGCAGGCAUCAGAAGAAAUAGUCUUGCGCUCAACCAGAAAGUCUGUAAUCAUUUUAAGGGUA [C6U A63G A90G] | 1.06 |
| GUUAAUGGUCAUAGGCCAUGGAAACUAGGAGCACCAUUUCGCUGCCAGUGAAGAAAUGAACAAUGAAAAUCUGGGCCAGGCAGGCAUCAAAAGAAAUAGUCUUGCGCUCAACCAGUAAGUCUGCAAUCAUUUUAAGGGUA [C6U A64U A116U U124C] | 0.17 |
| GUUAAUGGUCAUAGGCCAUGGAAACUAGGAGCACCAUUUCGCUGCCAGUGAAGAAAUGAACAAAGGAAAUCUGGGCCAGGCAGGCAUCAAAAGAAAUAGUCUUGCGCCCAACCAGAAGGUCUGUAAUCAUUUUAAGGGUA [C6U A66G U108C A118G] | 0 |
| GUUAAUGGUCAUAGGCCAUGGAAACUAGGAGCACCAUUUCGCUGCCAGUGAAGAAAUGAACAAAGAGAAUCUGGGCCAGGCAGGCAUCAAAAGAAAUAGUCUUGCGCUCAACCGGAAAGUCUGUAAUCAUUUUAAGGGUA [C6U A67G A114G] | 0.83 |
| GUUAAUGGUCAUAGGCCAUGGAAACUAGGAGCACCAUUUCGCUGCCAGUGAAGAAAUGAACAAAGAAGACCUGGGCCAGGCAGGCAUCAAAAGAAAUAGUCUUGCGCUCAACCAGAAAGUCUGUAAUCAUUUUAAGGGUA [C6U A68G U70C] | 0.51 |
| GUUAAUGGUCAUAGGCCAUGGAAACUAGGAGCACCAUUUCGCUGCCAGUGAAGAAAUGAACAAAGAAAAUCUGGGCCCGGCAGGCAUCAGAGGAAAUAGUCUUGCGCUCAACCAGAAAGUCUGUAAUCAUUUUAAGGGUA [C6U A78C A90G A92G] | 0.25 |
| GUUAAUGGUCAUAGGCCAUGGAAACUAGGAGCACCAUUUCGCUGCCAGUGAAGAAAUGAACAAAGAAAAUCUGGGCCAGGCAGGCAUCAAAGGAAACAGUCUUGCGCUCAACCAGAAAGUCUGUAAUCAUUUUAAGGGUA [C6U A92G U97C] | 1.16 |
| GUUAAUGGUCAUAGGCCAUGGAAACUAGGAGCACCAUUUCGCUGCCAGUGAAGAAAUGAACAAAGAAAAUCUGGGCCAGGCAGGCAUCAAAAGCAAUAGUCUUGCGCUCAACCAGAAAGUCCGUAAUCAUUUUAAGGGCA [C6U A94C U122C U139C] | 0.84 |
| GUUAAUGGUUAUAGGCCAUGGAAACUAGGAGCACCAUUACGCUGCCAGUGAAGAAAUGAACAAAGAAAAUCUGGGCCAGGCUGGCAUCAAAAGAAAUAGUCUUGCGCUCAACCAGAAAGUCUGUAAUCAUUUUAAGGGUA [C6U C10U U39A A82U] | 0.07 |
| GUUAAUGGUCAUAGGCCAUGGAAAUUAGGAGCACCACUUCGCUGCCAGUGAAGAAAUGAACAAAGAAAAUCUGGGCCAGGCAGGCAUCAGAAGAAAUAGUCUUGCGCUCAACCAGAUAGUCUGUAAUCAUUUUAAGGGUA [C6U C25U U37C A90G A117U] | 0.84 |
| GUUAAUGGUCAUAGGCCAUGGAAACUAGGAGCAACAUUUCGCUGCCAGUGAAGAAAUGAACAAAGGAAAUCUGGGCCAGGCAGGCAUCGAAAGAAAUAGUCUUGCGCUCAACCAGAAAGUCUGUAAUCUUUUUAAGGGUA [C6U C34A A66G A89G A129U] | 0.67 |
| GUUAAUGGUCAUAGGCCAUGGAAACUAGGAGCACCAUUUCGCUGUCAGUGAAGAAAUGAACAAAGAAAAUCUGGGCCAGCCAGGCAUCAAAAGAAAUAGUCUUGCGCUCAACCAGAAAGUCUGUAAUCAUUUUAAGGGUA [C6U C45U G80C] | 0.15 |
| GUUAAUGGUCAUAGGCCAUGGAAACUAGGAGCACCAUUUCGCUGCCAGUGAAGAAAUGAACAAAGAAAAUUUGGGCCGGGCAGGCAUCAAAAGAAGUAGUCUUGCGCUCAACCAGAAAGUCUGCAAUCAUUUUAAGGGUA [C6U C71U A78G A96G U124C] | 0.06 |
| GUUAAUGGUCAUAGGCCAUGGAAACUAGGAGCACCAUUUCACUGCCAGUGAAGAAAUGAACAAAGAAAAUCUGGGCCAGGCAGGCAUCAGAAGAAAUAGUCUUGCGCUCAACCAGAAAGUCUGUAAUCAUUUUAAGGGUA [C6U G41A A90G] | 0.74 |

| Variant | self-cleavage |
| --- | --- |
| GUUAAUGGUCAUAGGCCAUGGAAACUAGGAGCACCAUUUCGCUGCCAAUGAAGAAAUGAACAAAGAAAAUCUGGGCCAGGCAGGCAUCAAAAGAAAUAGUCAUGCGCUCCACCAGAAAGUCUGUAAUCAUUUUAAGGGUA [C6U G48A U102A A110C] | 0.08 |
| GUUAAUGGCCAUAGGCCAUGGAAACUAGGAGCACCAUUUCGCUGCCAGUGGAGAAACGAACAAAGAAGAUCUGGGCCAGGCAGGCAUCAAAAGAAAUAGUCUUGCGCUCAACCAGAAAGUCUGUAAUCAUUUUAAGGGUA [C6U U9C A51G U57C A68G] | 0.88 |
| GUUAAUGGCCAUAGGCCAUGGAAACUAGGAGCACCAUUUCGCUGCCAGUGAAGAAAUGAACAAAGGAAAUCUGGGCCAGGCAGGCAUCAAAUGAAAUAGUCUUGCGCUCAACCAGAAAGUCUGUAAUCAUUUUAAGGGUG [C6U U9C A66G A92U A140G] | 2.07 |
| GUUAAUGGCCAUAGGCCAUGGAAACUAGGAGCACCAUUUCGCUGCCAGUGAAGAAAUGAACAAAGAAAAUCUGGGCCAGGCAGGCAUCAAGAGAAAUAGUCUUGCGCUCAACCAGAAAGUCUGUAAUCAUUUUAAGGGUA [C6U U9C A91G] | 0.47 |
| GUUAAUGGCCAUAGGCCAUGGAAACUAGGAGCACCAUUUCGCUGCCAGUGAAGAAAUGAACAAAGAAAAUCUGGGCCAGGCAGGCAUCAAAAGAAAUAGCCUUGCGCUCAACCAGAAAGUCUGUAAUCAUUUCAAGGGUA [C6U U9C U100C U133C] | 1.52 |
| GUUAAUGGUCAUAGGCCAUGGAAACCAGGAGCACCAUUUCGCUGCCAGUGAAGAAACGAACAAAGAAAAUCUGGGCCAGGCAGGCAUCAAAAGAAAUAGUCUUGCGCUCAACCAGAAAGUCUGUAAUCAUUUUAAGGGUA [C6U U26C U57C] | 0.98 |
| GUUAAUGGUCAUAGGCCAUGGAAACUAGGAGCACCACUUCGCUGCCAGUGAAGAAAUGAACAAAGAAAAUCUGGGCCAGGCAGGCAUCAAAAGAAAUAGUCUUGCGCUCAACCAGAAAGUCUGUAAUCAUUCUAAGGGUA [C6U U37C U132C] | 1.42 |
| GUUAAUGGUCAUAGGCCAUGGAAACUAGGAGCACCAUUUCGCCGCCAGUGAAGAAAUGAACAAAGAAAAUCUGGGCCAGGCAGGCAUCUAAAGAAAUAGUCUUGCGCUCAACCAGAAAGCCUGUAAUCAUUUUAAGGGUA [C6U U43C A89U U120C] | 0.91 |
| GUUAAUGGUCAUAGGCCAUGGAAACUAGGAGCACCAUUUCGCUGCCAGAGGAGAAAUGAACAAAGUAAAUCUGGGCCUGGCAGGCAUCAAAGGAAAUAGUCUUGCGCUCAACCAGAAAGUCUGUAAUCAUUUUAAGGGUA [C6U U49A A51G A66U A78U A92G] | 0.48 |
| GUUAAUGGUCAUAGGCCAUGGAAACUAGGAGCACCAUUUCGCUGCCAGUGAAGAAAUGAACAAAGAAAAACUGGGCCAGGCAGGCAUCAAAAGAAACAGUCUUGCGCUCAACCAGAAAGUCUGUAAUCAUUUUAAGGGUA [C6U U70A U97C] | 0.56 |
| GUUAACAGUCGUAGGCCAUGGAUACUAGGAGCACCAUUUCGCUGCCAGUGAAGAAAUGAACAAAGAAAAUCAGGGCCAGGCAGGCAUCAAAAGAAAUAGUCUUGCGCUCAACCAGAAAGUCCGUAAUCAUUUUAAGGGUA [G7A A11G A23U U72A U122C] | 0.19 |
| GUUAACAGUCAUGGGCCAUGGAAACUAGGAGCACCAUUUCGCUGCCAGUGAAGAAAUGACCAAAGAAAAUCUGGGCCAGGCAGGCAUCAAAAGAAAUAGUCUUGCGCUCAACCAGAAAGUCUGUAAUCAUUUUAAGGGUA [G7A A13G A60C] | 1.42 |
| GUUAACAGUCAUAGGCCCUGGAAACUAGGAGCACCAUUUCGCUGCCAGUGAAGAAAUGAACAAAGAAGAUCUGGGCCAGGCAGGCAUCAAAAGAAAUAGUCUUGCGCUCUACCAGAAAGUCUGUAAUCAUUUUAAGGGUA [G7A A18C A68G A110U] | 0.96 |
| GUUAACAGUCAUAGGCCUUGGAAACUAGGAGCACCAUUUCGCUGCCAGUGAAGAAAUGAACAAAGAAAAUCUGGGCCAGGCAGGCAUCAAGAGAAAUAGUCUUGCGCUCAACCAGGAAGUCUGUAAUCAUUUUAAGGGUA [G7A A18U A91G A116G] | 0.83 |
| GUUAACAGUCAUAGGCCUUGGAAACUAGGAGCACCAUUUCGCUGCCAGUGAAGAAAUGAACAAAGAAAAUCUGGGCCAGGCAGGCAUCAAAAGAAAUAGUCUUGCGCUCAACCAGAAAGUCCGUAAUCAUUUUAAGGGUA [G7A A18U U122C] | 0.61 |
| GUUAACAGUCAUAGGCCAUGGGAACUAGGAGCACCAUUUCGCUGCCAGUGAAGAAAUGAACAAAGAAAAUCUGGGCCAGGCAGGCAUCAAAAGAGAUAGUCUUGCGCUCAACCAGAAAGUCUGUAAUCAUUUUAAGGGUA [G7A A22G A95G] | 1.62 |
| GUUAACAGUCAUAGGCCAUGGAGACUAGGAGCACCAUUUCGCUACCAGUGAAGAAAUGAACAAAGAAAAUCUGGGCCAGGCAGGCAUCAAAAGAAAUAGUCUUGCGCUCGACCAGAAGGUCUGUAAUCACUUUAAGGGUA [G7A A23G G44A A110G A118G U130C] | 0.04 |
| GUUAACAGUCAUAGGCCAUGGAAGCUAGGAGCACCAUUUCGCUGCCAGUGAAGAAAUGAACAAAGAAAAUCUGGGCCAGGCAGGCAUCAAAAGAAAUAGUCUUGCGCUCUACCAGAAAGUCUGUAAUAAUUUUAAGGGUA [G7A A24G A110U C128A] | 0.58 |
| GUUAACAGUCAUAGGCCAUGGAAACUAGGAGCACCGUUUCGCUGCCAGUGAAGAAAUGAGCAAAGAAAACCUGGGCCAGGCAGGCAUCAAAAGAAAUAGUCUUGCGCUCAACCGGAAAGUCUGUAAUCAUUUUAAGGGUA [G7A A36G A60G U70C A114G] | 0.06 |
| GUUAACAGUCAUAGGCCAUGGAAACUAGGAGCACCAUUUCGCUGCCGGUGAAGAAAUGAACAAAGAAAAUCUGGGCCAGGCAGGCAACGAAAGAAAUAGUCUUGCGCUCAACCAGAAAGUCAGUAAUCAUUUUAAGGGUA [G7A A47G U87A A89G U122A] | 0.7 |
